{"source": "PubChem BioAssay (NCATS)", "note": "Where “and” joins values, the source holds several entries; their conditions need not be identical. Equal entries are not always repeated. The shares of active, inactive and inconclusive entries below differ from those in the screen. A potency beside an inconclusive call is a rough fit, not a confirmed value. Where a structure was tested more than once in an assay, its records may differ in their call. Calls of active or inactive are those of the source. The call rests on the fitted dose curve; in most records, active means well fitted inhibition curve with a large enough effect; inconclusive means small, poorly fitted or top-dose-only effect; inactive means no such curve, though single readings can be large or run the other way. Potency means the concentration at half of the fitted maximal effect; tags describe the fitted curve by direction and shape."}
{"experiment": "qHTS assay for measurement of the activity of small molecule inhibitors on Zika virus induced Caspase-3 activity in human iPSC derived neural progenitor cells (hNPCs) (AID 1224857); further: nearly all actives have a fitted effect of over 65% in size; on activity change, negative = inhibition: % of control where 0% means no effect", "conditions": "hNPCs ZIKV-induced caspase-3/7, Caspase-Glo luminescence, 6 h; series mostly up to 45.7 µM; activity change, negative = inhibition: at the top concentration", "outline": "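Pretreat hNPCs with compound 1 h; infect ZIKV 2 FFU/cell; 6 h 37 C, 5% CO2; Caspase-Glo 3/7, 30 min RT; luminescence; normalize to no-virus and virus-only wells.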"}
{"compound": "CN(C)c1ccc(N=NS(=O)(=O)O)cc1", "Potency": "inconclusive: 8.91 µM [inhibitor, full curve, poor fit]"}
{"compound": "c1ccc2sc(SSc3nc4ccccc4s3)nc2c1", "Potency": "inconclusive: 10 µM [inhibitor, partial curve]"}
{"compound": "Cc1nc2ccccc2n1Cc1ccc(Cl)cc1", "Potency": "inconclusive: 39.8 µM [inhibitor, single point]"}
{"compound": "Cc1[nH]cnc1CN1CCc2c(c3ccccc3n2C)C1=O", "Potency": "inconclusive: 20 µM [inhibitor, partial curve]"}
{"compound": "CC(=O)c1ccc(OCC(=O)N2CCCCC2)cc1", "Potency": "inconclusive: 28.2 µM [inhibitor, partial curve, poor fit]"}
{"compound": "C=Cc1c(C)c2cc3[nH]c(cc4nc(cc5nc(cc1[nH]2)C(C)=C5CCC(=O)O)C(CCC(=O)O)=C4C)c(C)c3C=C", "Potency": "inactive and inconclusive: 35.5 µM [inhibitor, single point]"}
{"compound": "Cc1ccc(S(=O)(=O)/C=C/C#N)cc1", "Potency": "inconclusive: 22.4 µM [inhibitor, single point]"}
{"compound": "C=C1C(=O)[C@@]23C(CC[C@@H]1[C@H]2O)[C@@]12CO[C@]3(O)[C@@H](O)[C@@H]1C(C)(C)CC[C@@H]2O", "note": "(some centres not stated)", "Potency": "inconclusive: 23.5 µM [inhibitor, single point]"}
{"compound": "CNCC[C@H](Oc1cccc2ccccc12)c1cccs1", "Potency": "active: 23.5 µM"}
{"compound": "N=C(N)SCCc1cnc[nH]1", "activity change, negative = inhibition": "inactive: -8.71%"}
{"compound": "CCOC(=O)c1ccccc1O", "Potency": "inconclusive: 35.5 µM [inhibitor, partial curve, poor fit]"}
{"compound": "CSc1nc(N)c2ncn([C@@H]3O[C@H](COP(=O)(O)OP(=O)(O)OP(=O)(O)O)C(O)[C@H]3O)c2n1", "note": "(some centres not stated)", "Potency": "inconclusive: 25.1 µM [inhibitor, single point]"}
{"compound": "CC(=O)O[C@]1(C(C)=O)CC[C@H]2[C@@H]3C=C(C)C4=CC(=O)CC[C@]4(C)[C@@H]3CC[C@@]21C", "activity change, negative = inhibition": "inactive: 96.6%"}
{"compound": "COc1cccc(-c2ccc(NC(=O)C3=C(C(=O)O)CCC3)c(F)c2)c1", "Potency": "active: 2.64 µM"}
{"compound": "COc1ccc(O)cc1", "activity change, negative = inhibition": "inactive: 13.6%"}
{"compound": "CCCCCCCCCCCCOCCO", "Potency": "inconclusive: 28.2 µM [inhibitor, partial curve, poor fit]"}
{"compound": "COc1cccc2c1C(=O)c1c(O)c3c(c(O)c1C2=O)C[C@@](O)(C(=O)CO)C[C@@H]3O[C@H]1C[C@H](N)[C@H](O[C@@H]2CCCCO2)[C@H](C)O1", "Potency": "inconclusive: 31.6 µM [inhibitor, single point]"}
{"compound": "CCCNS(=O)(=O)Nc1ncnc(OCCOc2ncc(Br)cn2)c1-c1ccc(Br)cc1", "activity change, negative = inhibition": "inactive: -11.4%"}
{"compound": "NCCCS(=O)(=O)O", "activity change, negative = inhibition": "inactive: -1.41%"}
{"compound": "COC(=O)c1nc(Cl)c(Cl)nc1N", "Potency": "inconclusive: 35.5 µM [inhibitor, single point]"}
{"compound": "CC(=O)CC(c1ccccc1)c1c(O)c2ccccc2oc1=O", "note": "(configuration not stated)", "Potency": "active: 23.5 µM"}
{"compound": "Nc1cc(C(F)(F)F)ccc1S", "Potency": "active: 14.1 µM"}
{"compound": "N.N.N.N.N.N.N.N.N.N.N.N.N.N.O.O.[Cl-].[Cl-].[Cl-].[Cl-].[Cl-].[Cl-].[Ru+4].[Ru+5].[Ru+5]", "Potency": "inconclusive: 1.12 µM [inhibitor, single point]"}
{"compound": "CO[C@@]1(NC(=O)Cc2cccs2)C(=O)N2C(C(=O)O)=C(COC(N)=O)CS[C@@H]21", "Potency": "inconclusive: 14.1 µM [inhibitor, single point]"}
{"compound": "OC[C@H]1O[C@@H](n2cnc3c(NC4CCCCC4)ncnc32)[C@H](O)[C@@H]1O", "activity change, negative = inhibition": "inactive: -11.2%"}
{"compound": "c1ccc2occc2c1", "activity change, negative = inhibition": "inactive: 38.2% [at 92.8 µM]"}
{"compound": "Cc1cccc(C)c1NC(=O)c1ccccc1C(=O)O", "activity change, negative = inhibition": "inactive: -3.54%"}
{"compound": "CC(COc1ccccc1)NN", "note": "(configuration not stated)", "activity change, negative = inhibition": "inactive: -7.21%"}
{"compound": "CCCCC/C=C\\C/C=C\\CCCCCCCC(=O)NC(C)c1ccccc1", "note": "(configuration not stated)", "activity change, negative = inhibition": "inactive: 18.6%"}
{"compound": "N[C@H]1CONC1=O", "activity change, negative = inhibition": "inactive: 7.98%"}
{"compound": "CC(=O)/C=C1\\C(=O)N(C)c2ccccc21", "Potency": "inconclusive: 28.2 µM [inhibitor, single point]"}
{"compound": "C[C@H]1C[C@H]2[C@@H]3CCC4=CC(=O)C=C[C@]4(C)[C@@]3(Cl)[C@@H](O)C[C@]2(C)[C@@]1(O)C(=O)CO", "activity change, negative = inhibition": "inactive: 40.8%"}
{"compound": "C#C[C@]1(O)CC[C@H]2[C@@H]3CCc4cc(O)ccc4[C@H]3CC[C@@]21C", "Potency": "inconclusive: 6.31 µM [inhibitor, full curve, poor fit]"}
{"compound": "COC(=O)Nc1nc2ccc(Sc3ccccc3)cc2[nH]1", "Potency": "inactive"}
{"compound": "O=S1(=O)c2cccc3cccc(c23)N1CCCN1CCN(c2ccc(F)cc2)CC1", "activity change, negative = inhibition": "inactive: -22.7%"}
{"compound": "NCCSSCCN", "Potency": "inconclusive: 14.1 µM [inhibitor, single point]"}
{"compound": "CN(C(=O)C(Cl)Cl)c1ccc(OC(=O)c2ccco2)cc1", "activity change, negative = inhibition": "inactive: 2.02%"}
